{
  "source": "PubChem BioAssay AID504332",
  "about": "(National Center for Advancing Translational Sciences (NCATS), 2011)",
  "note": "About 31,000 (8.9%) of roughly 350,000 compounds were called active. Inconclusive results, whose numbers are uncertain, are shown with a selection of clear calls. Calls come from the whole dose curve; as a rule, active = well fitted inhibition curve with a large enough effect; inconclusive = small, poorly fitted or top-dose-only effect; inactive = no such curve, though single readings can be large or run the other way. Potencies beside an inconclusive call are fits to weak or partial responses and may not hold up. % is set by controls: 0 for no effect and ±100 for the full control effect; potency is the fitted concentration of half-maximal effect; tags give direction and shape of the fitted curve.",
  "data": [
    {"target": "Histone-lysine N-methyltransferase EHMT2 (Homo sapiens) (UniProt Q96KQ7)", "sequence (Q96KQ7 whole entry, looked up)": "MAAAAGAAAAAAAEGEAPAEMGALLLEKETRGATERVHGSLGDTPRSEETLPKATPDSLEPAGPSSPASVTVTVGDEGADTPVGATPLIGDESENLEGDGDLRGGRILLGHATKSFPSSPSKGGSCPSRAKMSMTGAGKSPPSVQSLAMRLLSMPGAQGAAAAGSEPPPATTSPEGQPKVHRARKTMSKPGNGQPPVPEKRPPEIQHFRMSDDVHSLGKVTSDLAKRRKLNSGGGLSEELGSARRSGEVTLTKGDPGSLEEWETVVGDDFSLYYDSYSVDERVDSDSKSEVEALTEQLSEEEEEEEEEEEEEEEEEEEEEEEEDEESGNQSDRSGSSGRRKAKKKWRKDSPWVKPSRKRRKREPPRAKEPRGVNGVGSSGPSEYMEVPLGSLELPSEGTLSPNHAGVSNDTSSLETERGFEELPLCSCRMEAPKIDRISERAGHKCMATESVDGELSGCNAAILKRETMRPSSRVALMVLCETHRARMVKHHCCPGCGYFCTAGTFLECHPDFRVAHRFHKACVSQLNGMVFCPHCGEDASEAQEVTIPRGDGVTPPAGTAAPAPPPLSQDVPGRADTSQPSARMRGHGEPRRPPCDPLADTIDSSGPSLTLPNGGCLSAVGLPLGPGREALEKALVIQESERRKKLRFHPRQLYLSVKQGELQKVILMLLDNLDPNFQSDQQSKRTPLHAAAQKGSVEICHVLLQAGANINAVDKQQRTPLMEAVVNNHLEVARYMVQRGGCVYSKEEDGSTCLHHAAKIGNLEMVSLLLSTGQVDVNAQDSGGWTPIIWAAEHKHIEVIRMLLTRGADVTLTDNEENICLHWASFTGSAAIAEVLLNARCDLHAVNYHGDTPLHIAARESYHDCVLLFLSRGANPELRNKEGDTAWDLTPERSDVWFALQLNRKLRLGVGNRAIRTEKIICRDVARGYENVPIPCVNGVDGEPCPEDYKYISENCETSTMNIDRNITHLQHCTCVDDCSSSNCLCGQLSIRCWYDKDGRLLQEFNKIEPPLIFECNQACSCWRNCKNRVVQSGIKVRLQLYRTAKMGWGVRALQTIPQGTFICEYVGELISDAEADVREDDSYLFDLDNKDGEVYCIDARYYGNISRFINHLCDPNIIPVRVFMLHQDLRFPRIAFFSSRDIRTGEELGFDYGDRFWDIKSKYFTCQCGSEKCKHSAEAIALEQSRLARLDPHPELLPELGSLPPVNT", "test": "qHTS Assay for Inhibitors of Histone Lysine Methyltransferase G9a; note: nearly all actives have a fitted effect of over 75% in size", "settings": "G9a H3K9 monomethylation, AlphaScreen, 2 h; activity, negative = inhibition: at 59 µM (top of the series) unless noted", "how_it_was_run": "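Step 1: enzyme (final 20 nM) with compound, 15 min RT. Step 2: substrate peptide 500 nM and SAM 20 uM, 2 h RT. Step 3: anti-H3K9me1 antibody and AlphaScreen beads, 10 min, then plate read.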", "values": [
      {"smiles": "CC(=O)Nc1ccc2nc(-c3ccco3)[nH]c2c1", "Potency": "inconclusive: 70.8 µM [inhibitor, partial curve]"},
      {"smiles": "Cc1cc(-c2n[nH]c(=S)n2/N=C/C(Cl)=C/c2ccccc2)n[nH]1", "Potency": "active: 1.58 µM"},
      {"smiles": "CC(=O)Nc1cccc(NC(=O)CSc2nnc3ccc(-c4cccnc4)nn23)c1", "Potency": "inconclusive: 35.5 µM [inhibitor, partial curve]"},
      {"smiles": "COc1ccc(N2CCN(C(=O)CNC(=O)c3ccc(Br)o3)CC2)cc1", "Potency": "inconclusive: 5.62 µM [inhibitor, partial curve, poor fit]"},
      {"smiles": "Cc1ccc([N+](=O)[O-])cc1NC(=O)CCSc1ccc(Cl)cc1", "activity, negative = inhibition": "inactive: 4.01%"},
      {"smiles": "CC1CN(Cc2ccccn2)CCC1=O", "note": "(stereo unspecified)", "Potency": "active: 7.94 µM"},
      {"smiles": "COc1cccc(NC2=CC(c3ccc(C(C)C)cc3)N(c3cccc(OC)c3)C2=O)c1", "note": "(stereo unspecified)", "Potency": "inconclusive: 5.62 µM [inhibitor, partial curve]"},
      {"smiles": "CC(=O)c1ccc(NC(=O)C2=CC(c3ccco3)=NS(=O)(=O)N2C)cc1", "Potency": "inconclusive: 100 µM [inhibitor, single point]"},
      {"smiles": "CC(NC(=O)C1c2ccccc2Oc2ccccc21)C1CCCO1", "note": "(stereo unspecified)", "Potency": "inconclusive: 89.1 µM [inhibitor, partial curve, poor fit]"},
      {"smiles": "COc1cccc(OC)c1OCCCCn1cnc2ccccc2c1=O", "Potency": "active: 20 µM"},
      {"smiles": "O=C(O)c1ccc(N/N=C/c2c(F)cccc2Cl)cc1", "activity, negative = inhibition": "inactive: -7.81% [at 102 µM]"},
      {"smiles": "COc1ccc(CNCc2ccco2)cc1OCc1ccccc1", "Potency": "active: 12.6 µM"},
      {"smiles": "CN(C(=O)c1ccc(OC2CCN(Cc3ccccn3)CC2)cc1)C1CCCCC1", "activity, negative = inhibition": "inactive: 19.1% [at 102 µM]"},
      {"smiles": "CCN(CC(=O)NCc1ccc(Cl)cc1)C(=O)c1c(C)noc1C", "activity, negative = inhibition": "inactive: -126% [at 12.7 µM]"},
      {"smiles": "CC(C)Cc1nnc(NS(C)(=O)=O)s1", "Potency": "inconclusive: 56.2 µM [inhibitor, partial curve]"},
      {"smiles": "CCCCn1c(=O)[nH]c(=O)c2c1nc(-c1cc(Br)c(OCC)c(OC)c1)n2C", "activity, negative = inhibition": "inactive: -0.678% [at 102 µM]"},
      {"smiles": "CCc1ccccc1NC(=O)Nc1ccc2snnc2c1", "activity, negative = inhibition": "inactive: 10.9%"},
      {"smiles": "COc1cc(NC(=O)CSc2ncnc3scc(-c4ccccc4)c23)c(C(=O)O)cc1OC", "Potency": "inconclusive: 56.2 µM [inhibitor, partial curve, poor fit]"},
      {"smiles": "O=C(Nc1ccc(O)cc1C(=O)O)c1cccs1", "Potency": "inconclusive: 28.2 µM [inhibitor, partial curve, poor fit]"},
      {"smiles": "COc1ccccc1N(Cc1cc(=O)[nH]c2ccccc12)C(=O)C(C)C", "Potency": "inconclusive: 89.1 µM [inhibitor, single point]"},
      {"smiles": "CSc1cc(-c2ccccc2)n(Cc2ccc(Cl)cc2Cl)c(=O)c1C#N", "activity, negative = inhibition": "inactive: 32.3% [at 102 µM]"},
      {"smiles": "Cc1cccc(CC(=O)N2CC(=O)Nc3ccc(F)cc3C2c2ccccc2)c1", "note": "(stereo unspecified)", "activity, negative = inhibition": "inactive: 2.59%"},
      {"smiles": "Nn1cc(-c2ccccc2)nc1SCC(=O)Nc1ccc2c(c1)OCO2", "Potency": "active: 70.8 µM"},
      {"smiles": "O=C(Nc1ccccc1F)c1ccc(CN2CCN(c3ccccc3)CC2)cc1", "Potency": "active: 79.4 µM"},
      {"smiles": "CC(C)C(CCNC1CCN(C)CC1)c1ccc(Cl)cc1", "note": "(stereo unspecified)", "Potency": "inconclusive: 89.1 µM [inhibitor, single point]"},
      {"smiles": "COc1ccc2oc(C(=O)Nc3nc4ccc(S(C)(=O)=O)cc4s3)c(C)c2c1", "Potency": "inconclusive: 25.1 µM [inhibitor, partial curve, poor fit]"},
      {"smiles": "CCOc1ccc(NC(=O)CSc2nnc(CCNC(=O)c3ccc(OC)cc3)n2C)cc1", "activity, negative = inhibition": "inactive: 23.2% [at 102 µM]"},
      {"smiles": "O=C(CCCSc1nc2ccccc2[nH]1)NCc1ccc(Cl)cc1", "Potency": "active: 10 µM"},
      {"smiles": "CCc1ccc(NS(=O)(=O)c2ccc3[nH]c4c(c3c2)CCCCCC4)cc1", "Potency": "inconclusive: 22.4 µM [inhibitor, partial curve, poor fit]"},
      {"smiles": "CCCC(c1nnnn1C(C)(C)CC)N1CCN(C(=O)c2ccco2)CC1", "note": "(stereo unspecified)", "Potency": "active: 89.1 µM"},
      {"smiles": "Cc1nc2nc(C)n(-c3ccccc3)c2s1", "Potency": "active: 12.6 µM"},
      {"smiles": "Cc1ccc(-c2nn(CC(=O)NCC3CCCO3)c(=O)c3ccccc23)cc1", "note": "(stereo unspecified)", "activity, negative = inhibition": "inconclusive: -52.1% [inhibitor] [at 12.7 µM]"},
      {"smiles": "N#Cc1cc2c(=O)n3ccccc3nc2n(Cc2ccco2)c1=NC(=O)c1ccco1", "Potency": "inconclusive: 6.31 µM [inhibitor, partial curve, poor fit]"},
      {"smiles": "C[C@@](N)(Cc1ccc(O)c(O)c1)C(=O)O", "activity, negative = inhibition": "inactive: -26.8% [at 21.5 µM]"},
      {"smiles": "O=C(NC(Nc1nc2ccc([N+](=O)[O-])cc2s1)(C(F)(F)F)C(F)(F)F)c1ccccc1", "Potency": "inconclusive: 20 µM [inhibitor, partial curve, poor fit]"},
      {"smiles": "CC(C)c1ccc(C2C(C#N)=C(N)N3C(=C2C#N)Sc2ccccc23)cc1", "note": "(stereo unspecified)", "Potency": "active: 35.5 µM"},
      {"smiles": "CN(C(=O)CSc1ncnc2ccccc12)C1CCCCC1", "activity, negative = inhibition": "inactive: -26.2% [at 102 µM]"},
      {"smiles": "CSCCOC(=O)C1=C(C)NC(=O)CC1c1ccccc1Cl", "note": "(stereo unspecified)", "Potency": "inconclusive: 10 µM [inhibitor, partial curve, poor fit]"},
      {"smiles": "Cc1cccc(/C(N)=N/OC(=O)N2c3ccccc3Sc3ccccc32)c1", "Potency": "inconclusive: 31.6 µM [inhibitor, single point]"},
      {"smiles": "Cc1c(Cl)c([N+](=O)[O-])nn1CC(=O)N1CCN(C23CC4CC(CC(C4)C2)C3)CC1", "Potency": "active: 44.7 µM"},
      {"smiles": "CCOc1ccc(C(=O)N(Cc2ccccc2)c2cccc(C)c2)cc1OC", "Potency": "inconclusive: 70.8 µM [inhibitor, partial curve, poor fit]"},
      {"smiles": "CCc1ccc(NC(=O)CN2C(=O)CC(c3ccccc3)Sc3ccccc32)cc1", "note": "(stereo unspecified)", "activity, negative = inhibition": "inactive: -16.6%"},
      {"smiles": "COc1ccc(CNCc2c(F)cccc2F)cc1OC", "Potency": "active: 10 µM"},
      {"smiles": "COC(=O)c1c(S(=O)(=O)NCc2ccccc2)sc(C(=O)O)c1C", "Potency": "inconclusive: 31.6 µM [inhibitor, partial curve]"},
      {"smiles": "Cc1ccc(C)n1-c1ccc(-c2ccnc(N)n2)cc1", "Potency": "inconclusive: 35.5 µM [inhibitor, full curve]"},
      {"smiles": "O=C(N1CCOCC1)N1CCN(c2nc(-c3ccccc3)cs2)CC1", "Potency": "active: 44.7 µM"},
      {"smiles": "C=CCNc1nnc(SCC(=O)N2CCCCC2)c2ccccc12", "Potency": "active: 50.1 µM"},
      {"smiles": "CCCCCNC(=O)C1CCC(Cn2c(=O)c3sccc3n(CC)c2=O)CC1", "note": "(stereo unspecified)", "activity, negative = inhibition": "inactive: 3.21%"},
      {"smiles": "Cc1ccc(S(=O)(=O)NCCOc2cc(C)ccc2C)cc1", "activity, negative = inhibition": "inactive: 65.2% [at 102 µM]"},
      {"smiles": "COc1ccc(N2C(=O)CC(Sc3nnnn3-c3ccc(F)cc3)C2=O)cc1", "note": "(stereo unspecified)", "Potency": "inconclusive: 11.2 µM [inhibitor, partial curve, poor fit]"},
      {"smiles": "Cc1ccc(-c2nc3scc(CCNS(=O)(=O)c4ccc(Oc5ccccc5)cc4)n3n2)cc1", "activity, negative = inhibition": "inactive: 3.72%"},
      {"smiles": "CS/C(=N\\S(=O)(=O)c1cccs1)Nc1ccc(F)cc1", "Potency": "inconclusive: 79.4 µM [inhibitor, single point]"},
      {"smiles": "CCc1nc(N2CCOCC2)c(C#N)c2c1CCCC2", "activity, negative = inhibition": "inactive: 16%"},
      {"smiles": "O=Cc1sc(=O)n(Cc2cccc(C(=O)O)c2)c1Cl", "activity, negative = inhibition": "inconclusive: -63.2% [inhibitor] [at 12.7 µM]"},
      {"smiles": "CC(CCc1ccccc1)NC(=O)CCc1cn(C)c2ccccc12", "note": "(stereo unspecified)", "Potency": "inconclusive: 79.4 µM [inhibitor, single point]"},
      {"smiles": "CCCCn1nc(C(=O)Nc2ccccc2N2CCCC2)c2ccccc2c1=O", "activity, negative = inhibition": "inactive: 25.5% [at 12.7 µM]"},
      {"smiles": "CCCN1CCN(C(=O)Nc2ccc(OCC)cc2)CC1", "Potency": "inconclusive: 79.4 µM [inhibitor, partial curve, poor fit]"},
      {"smiles": "CN1CCN(CC(=O)Nc2nc3ccccc3s2)CC1", "Potency": "active: 35.5 µM"},
      {"smiles": "CCc1nc2sc3c(N4CCCCC4)ncnc3c2c2c1CCCC2", "activity, negative = inhibition": "inactive: -0.372%"},
      {"smiles": "O=C(O)C1CCN(C(=O)c2scc3c2OCCO3)CC1", "Potency": "inconclusive: 79.4 µM [inhibitor, single point]"},
      {"smiles": "O=C(NCCCn1ccnc1)c1ccc(NS(=O)(=O)c2cccc([N+](=O)[O-])c2)cc1", "activity, negative = inhibition": "inactive: -40.2% [at 102 µM]"},
      {"smiles": "O=C(Nc1nc(-c2ccccc2)cs1)c1ccc(S(=O)(=O)N2CCc3ccccc32)cc1", "Potency": "inconclusive: 63.1 µM [inhibitor, single point]"},
      {"smiles": "CCCN(Cc1ccc(N(C)C)cc1)CC1CC1", "Potency": "inconclusive: 39.8 µM [inhibitor, partial curve, poor fit]"},
      {"smiles": "COc1ccc(/C=N/N2CCN(c3ccccc3OC)CC2)cc1Br", "activity, negative = inhibition": "inactive: 2.8% [at 0.501 µM]"},
      {"smiles": "CN(C)CCNC(=O)/C(=C/c1ccc(-c2ccc(Cl)cc2Cl)o1)NC(=O)c1ccccc1", "Potency": "inconclusive: 31.6 µM [inhibitor, single point]"},
      {"smiles": "Cc1nc2cc(NC(=O)C3COc4ccccc4O3)ccc2s1", "note": "(stereo unspecified)", "Potency": "active: 50.1 µM"},
      {"smiles": "COc1ccc(Br)cc1CNC(=O)CSc1n[nH]c(-c2ccccc2)n1", "activity, negative = inhibition": "inactive: -2.13%"},
      {"smiles": "COc1cc2[nH]c(=S)nc(NC3CCCC3)c2cc1OC", "Potency": "active: 31.6 µM"},
      {"smiles": "CCOC(=O)CSc1cccc2cccnc12", "activity, negative = inhibition": "inactive: -0.211%"},
      {"smiles": "COc1ccc(NC(=O)CCS(=O)(=O)c2ccc3c(c2)n(C)c(=O)c(=O)n3C)cc1Cl", "activity, negative = inhibition": "inactive: 1.84%"},
      {"smiles": "NC(=O)COC(=O)c1ccc(Cl)c(S(=O)(=O)N2CCCCCC2)c1", "Potency": "inconclusive: 5.01 µM [inhibitor, full curve, poor fit]"},
      {"smiles": "CC1=C(C(=O)Nc2ccccc2)C(c2ccc(Cl)cc2)n2c(s/c(=C/c3cccc(OCC(=O)O)c3)c2=O)=N1", "note": "(stereo unspecified)", "Potency": "inconclusive: 28.2 µM [inhibitor, single point]"},
      {"smiles": "S=C(NCCc1ccccc1)Nc1ccc(Cl)cc1", "activity, negative = inhibition": "inactive: 28.9%"},
      {"smiles": "CSc1ccccc1N1CCN(CCCCCC(=O)NC2CCCc3ccccc32)CC1", "note": "(stereo unspecified)", "Potency": "active: 21.2 µM"},
      {"smiles": "CCOC(=O)C1(Cc2ccc(Cl)cc2)CCN(Cc2nccn2CC)CC1", "Potency": "inconclusive: 31.6 µM [inhibitor, partial curve]"},
      {"smiles": "CCC1(c2ccc(F)cc2)NC(=O)N(CC(=O)Nc2cccnc2Cl)C1=O", "note": "(stereo unspecified)", "Potency": "inconclusive: 56.2 µM [inhibitor, partial curve, poor fit]"}
    ]}
  ]
}
